Experimental data taken from paper PMC7467691, “Meiotic chromosome synapsis depends on multivalent SYCE1-SIX6OS1 interactions that are disrupted in cases of human infertility” (Science Advances, 2020).
No constants are given. Whether binding was seen depends on the method and setting. For some assays here: Binding seen in cells or lysates may run through a third protein. Some binding calls cover weakened binding; strength is not graded here. For some assays here: Tags and fused reporters may be left off the sequences shown.

T1: SIX6OS1N (human SIX6OS1 amino acids 1 to 67) (human) (UniProt Q8N1H7)
T1 sequence: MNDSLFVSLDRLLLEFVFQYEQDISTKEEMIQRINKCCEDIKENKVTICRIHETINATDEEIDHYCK

T2: SYCE1 (construct purified with SYCE3, fig. S7, A and B) (human) (UniProt Q8N0S2)
T2 sequence: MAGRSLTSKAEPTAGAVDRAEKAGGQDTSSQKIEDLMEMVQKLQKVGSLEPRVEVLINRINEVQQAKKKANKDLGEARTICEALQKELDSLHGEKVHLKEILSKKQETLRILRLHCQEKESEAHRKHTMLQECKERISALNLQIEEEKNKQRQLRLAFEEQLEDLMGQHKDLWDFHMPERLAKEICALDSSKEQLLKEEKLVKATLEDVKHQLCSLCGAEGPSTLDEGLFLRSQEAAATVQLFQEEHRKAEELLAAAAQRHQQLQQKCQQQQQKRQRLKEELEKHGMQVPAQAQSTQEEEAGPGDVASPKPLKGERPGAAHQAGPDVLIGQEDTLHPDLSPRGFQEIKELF

T3: Flag-mSYCE1 (mouse) (UniProt Q9D495)
T3 sequence: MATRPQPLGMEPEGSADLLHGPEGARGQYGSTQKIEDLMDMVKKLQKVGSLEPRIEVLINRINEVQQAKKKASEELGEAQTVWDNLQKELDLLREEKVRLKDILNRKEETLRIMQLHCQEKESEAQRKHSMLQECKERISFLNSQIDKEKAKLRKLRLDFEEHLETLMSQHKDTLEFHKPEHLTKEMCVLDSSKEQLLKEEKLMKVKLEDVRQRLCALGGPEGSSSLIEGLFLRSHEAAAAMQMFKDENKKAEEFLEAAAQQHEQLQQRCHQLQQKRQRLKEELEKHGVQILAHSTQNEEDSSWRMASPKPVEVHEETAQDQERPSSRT

T4: full-length SIX6OS1, yeast two-hybrid fusion (human) (UniProt Q8N1H7)
T4 sequence: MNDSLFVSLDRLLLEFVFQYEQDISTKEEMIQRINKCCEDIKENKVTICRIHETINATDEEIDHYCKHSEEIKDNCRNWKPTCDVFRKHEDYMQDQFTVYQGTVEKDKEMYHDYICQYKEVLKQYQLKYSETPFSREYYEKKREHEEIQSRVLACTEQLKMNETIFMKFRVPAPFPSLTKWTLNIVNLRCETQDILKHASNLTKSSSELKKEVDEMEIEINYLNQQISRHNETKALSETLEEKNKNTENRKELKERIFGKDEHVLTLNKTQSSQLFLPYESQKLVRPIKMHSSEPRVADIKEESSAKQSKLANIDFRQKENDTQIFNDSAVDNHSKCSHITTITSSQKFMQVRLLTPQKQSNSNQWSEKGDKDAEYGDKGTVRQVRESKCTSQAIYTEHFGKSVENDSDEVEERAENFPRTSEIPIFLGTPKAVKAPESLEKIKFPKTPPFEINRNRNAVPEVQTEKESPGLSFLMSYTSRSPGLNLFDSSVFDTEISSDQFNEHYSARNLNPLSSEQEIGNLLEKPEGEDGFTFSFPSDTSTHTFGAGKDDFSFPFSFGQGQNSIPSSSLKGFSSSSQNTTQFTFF

T5: SIX6OS1 1–22, yeast two-hybrid fusion (human) (UniProt Q8N1H7)
T5 sequence: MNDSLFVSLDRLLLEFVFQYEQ

T6: full-length SIX6OS1 Δ10–21, yeast two-hybrid fusion (human) (UniProt Q8N1H7)
T6 sequence: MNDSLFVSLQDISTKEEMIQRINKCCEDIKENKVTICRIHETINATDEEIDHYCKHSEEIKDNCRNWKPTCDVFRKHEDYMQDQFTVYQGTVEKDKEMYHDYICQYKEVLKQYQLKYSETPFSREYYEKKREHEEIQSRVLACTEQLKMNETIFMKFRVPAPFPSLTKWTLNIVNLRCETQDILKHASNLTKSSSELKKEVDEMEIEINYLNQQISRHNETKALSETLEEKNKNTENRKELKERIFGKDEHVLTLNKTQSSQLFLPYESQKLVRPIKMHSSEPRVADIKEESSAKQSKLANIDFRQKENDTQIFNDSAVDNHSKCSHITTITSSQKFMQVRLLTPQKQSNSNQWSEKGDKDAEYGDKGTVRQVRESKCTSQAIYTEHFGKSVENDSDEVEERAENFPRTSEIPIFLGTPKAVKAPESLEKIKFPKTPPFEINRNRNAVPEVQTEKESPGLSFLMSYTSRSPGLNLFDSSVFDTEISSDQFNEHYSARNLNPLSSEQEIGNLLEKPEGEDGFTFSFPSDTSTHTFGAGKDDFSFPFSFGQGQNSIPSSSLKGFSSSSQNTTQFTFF

T7: SIX6OS1 1–262, yeast two-hybrid fusion (human) (UniProt Q8N1H7)
T7 sequence: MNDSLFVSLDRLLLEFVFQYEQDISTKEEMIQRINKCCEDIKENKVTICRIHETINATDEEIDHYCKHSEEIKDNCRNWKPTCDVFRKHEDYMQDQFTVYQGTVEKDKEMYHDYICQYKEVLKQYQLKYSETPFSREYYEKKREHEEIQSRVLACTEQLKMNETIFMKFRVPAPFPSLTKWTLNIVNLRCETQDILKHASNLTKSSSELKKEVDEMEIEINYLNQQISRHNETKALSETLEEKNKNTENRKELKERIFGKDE

T8: SIX6OS1 1–262 Δ10–21, yeast two-hybrid fusion (human) (UniProt Q8N1H7)
T8 sequence: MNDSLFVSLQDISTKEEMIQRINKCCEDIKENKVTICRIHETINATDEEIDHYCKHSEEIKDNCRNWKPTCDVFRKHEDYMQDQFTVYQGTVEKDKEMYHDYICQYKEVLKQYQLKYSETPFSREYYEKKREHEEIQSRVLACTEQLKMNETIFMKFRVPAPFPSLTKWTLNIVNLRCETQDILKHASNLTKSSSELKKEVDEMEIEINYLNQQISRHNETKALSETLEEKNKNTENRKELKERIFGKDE

B1: SYCE1POF (human SYCE1 amino acids 1 to 240, truncated product of the POF mutation c.613C>T, p.Gln241*) (domain or fragment, UniProt Q8N0S2 1-240, looked up)
chain: MAGRSLTSKAEPTAGAVDRAEKAGGQDTSSQKIEDLMEMVQKLQKVGSLEPRVEVLINRINEVQQAKKKANKDLGEARTICEALQKELDSLHGEKVHLKEILSKKQETLRILRLHCQEKESEAHRKHTMLQECKERISALNLQIEEEKNKQRQLRLAFEEQLEDLMGQHKDLWDFHMPERLAKEICALDSSKEQLLKEEKLVKATLEDVKHQLCSLCGAEGPSTLDEGLFLRSQEAAATV
notes: SYCE1, human, amino acids 1 to 240, relative to the canonical 351-amino acid isoform; product of the premature stop codon p.Gln241*; The purified material held about equal amounts of the full protein and a degradation product; source: also co-expressed with SIX6OS1N
B2: full-length SYCE1 (human) (natural protein, UniProt Q8N0S2 1-351, looked up)
chain: MAGRSLTSKAEPTAGAVDRAEKAGGQDTSSQKIEDLMEMVQKLQKVGSLEPRVEVLINRINEVQQAKKKANKDLGEARTICEALQKELDSLHGEKVHLKEILSKKQETLRILRLHCQEKESEAHRKHTMLQECKERISALNLQIEEEKNKQRQLRLAFEEQLEDLMGQHKDLWDFHMPERLAKEICALDSSKEQLLKEEKLVKATLEDVKHQLCSLCGAEGPSTLDEGLFLRSQEAAATVQLFQEEHRKAEELLAAAAQRHQQLQQKCQQQQQKRQRLKEELEKHGMQVPAQAQSTQEEEAGPGDVASPKPLKGERPGAAHQAGPDVLIGQEDTLHPDLSPRGFQEIKELF
notes: SYCE1, human, full length; canonical 351-amino acid isoform; source: E. coli BL21(DE3), purified; co-expressed with SIX6OS1N for the complex
B3: SYCE3 (construct purified with SYCE1, fig. S7, A and B) (protein, UniProt A1L190 1-88)
chain: MDDADPEERNYDNMLKMLSDLNKDLEKLLEEMEKISVQATWMAYDMVVMRTNPTLAESMRRLEDAFVNCKEEMEKNWQELLHETKQRL
B4: GFP-mSIX6OS1 (protein, UniProt Q9CTN5 1-574)
chain: MNDNLFVSLDRLLLEFVFQYEQDISIKEDTIQRINKCLESIKENKANVSKLREAINKVDEDIAFHYKHSKEIKDSCSNWKPTCDVFHKHEDYIKDQLTAYQETNEKDKKMYHDYICQYEDVLKQYQLKYSETRFSCKYYEKKKEHEEIKNRVLACTEQLQLNETILMKFLVPAPFPSLTKWTLYVVNLRYRTQDILKRANNFTKRSFELEKEADDMEIEINSLNKMARLFESKTFSEALDEKNKNTEKRKEFEERIFEKDEQVSNRSSQNSQLLLPCESQKFVRNMNSSEARVTDKKEESSANQSKFVRSDVRQKENNPQIFNDSGMDSNSKSSHIPAVKSSQGFMQFRLNQPNYNQRIEKEHIDAECGDKETVRQVRESKCSTQALYIEHFGKSIENNSVEEERDENFPQTPETPSFLRTPEALKTPESMEKMQFPKSPFFEITKNATSEGHKQKDSPGFSFLMSYTSRSPGLNLFDSSVSDSEISSDQFNEHYSAVNLNPSSSQQGIGNLFGKSEGEDAFTFSFSSDSSHTFGAGKDDFSFPFSFEQDPSTMTSSSSKDFSSSQNKTQFMFF
B5: SYCE1 177–305, yeast two-hybrid fusion (domain or fragment, UniProt Q8N0S2 177-305)
chain: MPERLAKEICALDSSKEQLLKEEKLVKATLEDVKHQLCSLCGAEGPSTLDEGLFLRSQEAAATVQLFQEEHRKAEELLAAAAQRHQQLQQKCQQQQQKRQRLKEELEKHGMQVPAQAQSTQEEEAGPGD
B6: full-length SYCE1, yeast two-hybrid fusion (protein, UniProt Q8N0S2 1-351)
chain: MAGRSLTSKAEPTAGAVDRAEKAGGQDTSSQKIEDLMEMVQKLQKVGSLEPRVEVLINRINEVQQAKKKANKDLGEARTICEALQKELDSLHGEKVHLKEILSKKQETLRILRLHCQEKESEAHRKHTMLQECKERISALNLQIEEEKNKQRQLRLAFEEQLEDLMGQHKDLWDFHMPERLAKEICALDSSKEQLLKEEKLVKATLEDVKHQLCSLCGAEGPSTLDEGLFLRSQEAAATVQLFQEEHRKAEELLAAAAQRHQQLQQKCQQQQQKRQRLKEELEKHGMQVPAQAQSTQEEEAGPGDVASPKPLKGERPGAAHQAGPDVLIGQEDTLHPDLSPRGFQEIKELF
B7: SYCE1 25–315, yeast two-hybrid fusion (domain or fragment, UniProt Q8N0S2 25-315)
chain: GQDTSSQKIEDLMEMVQKLQKVGSLEPRVEVLINRINEVQQAKKKANKDLGEARTICEALQKELDSLHGEKVHLKEILSKKQETLRILRLHCQEKESEAHRKHTMLQECKERISALNLQIEEEKNKQRQLRLAFEEQLEDLMGQHKDLWDFHMPERLAKEICALDSSKEQLLKEEKLVKATLEDVKHQLCSLCGAEGPSTLDEGLFLRSQEAAATVQLFQEEHRKAEELLAAAAQRHQQLQQKCQQQQQKRQRLKEELEKHGMQVPAQAQSTQEEEAGPGDVASPKPLKGE
B8: SYCE1POF (amino acids 25 to 240), yeast two-hybrid fusion (domain or fragment, UniProt Q8N0S2 25-240)
chain: GQDTSSQKIEDLMEMVQKLQKVGSLEPRVEVLINRINEVQQAKKKANKDLGEARTICEALQKELDSLHGEKVHLKEILSKKQETLRILRLHCQEKESEAHRKHTMLQECKERISALNLQIEEEKNKQRQLRLAFEEQLEDLMGQHKDLWDFHMPERLAKEICALDSSKEQLLKEEKLVKATLEDVKHQLCSLCGAEGPSTLDEGLFLRSQEAAATV
B9: SYCE1core (human SYCE1 amino acids 25 to 179) (domain or fragment, UniProt Q8N0S2 25-179, looked up)
chain: GQDTSSQKIEDLMEMVQKLQKVGSLEPRVEVLINRINEVQQAKKKANKDLGEARTICEALQKELDSLHGEKVHLKEILSKKQETLRILRLHCQEKESEAHRKHTMLQECKERISALNLQIEEEKNKQRQLRLAFEEQLEDLMGQHKDLWDFHMPE
notes: Synaptonemal complex central element protein 1 (SYCE1), human, amino acids 25 to 179, numbers relative to the canonical 351-amino acid isoform; also called SYCE1 structural core; SYCE1 25–179; source: co-expressed with SIX6OS1N for the complex

Legend:
[1] = molecular target: T1, SIX6OS1N (human SIX6OS1 amino acids 1 to 67) (human); test: co-purification; bacterial coexpression; reciprocal affinity chromatography (Ni-NTA, amylose), ion exchange, tags removed by TEV, further ion exchange and size exclusion chromatography
[2] = molecular target: T2, SYCE1 (construct purified with SYCE3, fig. S7, A and B) (human); test: co-purification; SYCE1 with SYCE3; dissociation during purification (fig. S7, A and B)
Flag-mSYCE1 (mouse) = molecular target: T3, Flag-mSYCE1 (mouse); test: co-IP; HEK293T cells cotransfected; whole-cell extracts; immunoprecipitation with anti-Flag, anti-EGFP or anti-Myc antibodies, mouse IgG as negative control; protein G Sepharose; immunoblot
[3] = molecular target: T4, full-length SIX6OS1, yeast two-hybrid fusion (human); test: two-hybrid; Matchmaker Gold; pGBKT7 in Y187 mated with pGADT7 in Y2H gold; SD/-Trp/-Leu/-Ade/-His with X-alpha-gal, growth of blue colonies, 5 days at 30°C
[4] = molecular target: T5, SIX6OS1 1–22, yeast two-hybrid fusion (human); test: as above
[5] = molecular target: T6, full-length SIX6OS1 Δ10–21, yeast two-hybrid fusion (human); test: as above
[6] = molecular target: T7, SIX6OS1 1–262, yeast two-hybrid fusion (human); test: as above
[7] = molecular target: T8, SIX6OS1 1–262 Δ10–21, yeast two-hybrid fusion (human); test: as above

Binder	binding [1]	binding [4]	binding [6]	binding [7]	other results
B1	binds	–	–	–	–
B2	binds	–	–	–	–
B3	–	–	–	–	binding [2]: binds weakly
B4	–	–	–	–	binding (Flag-mSYCE1 (mouse)): binds
B5	–	no binding	–	–	binding [3]: binds; binding [5]: binds
B6	–	no binding	binds	binds	–
B7	–	no binding	binds	binds	–
B8	–	no binding	binds	no binding	–
B9	binds	–	–	–	–
